Test results reported in the supplement of paper PMC3334620.
Whole data set: some 33,000 sequences, median “E-score (-0.5 to 0.5)” near -0.017, cut for the highest 2% near 0.3. The list shows a part of the results.

These sequences were tested against T1, Sut1 (UniProt P53032) (assay: PBM E-score (8-mer binding enrichment) (E-score (-0.5 to 0.5)); higher = stronger / more preferred TF binding; most listed sequences are background and not binding sites). Conditions: protein concentration: 200 nM; construct: GST-full length.
T1 sequence: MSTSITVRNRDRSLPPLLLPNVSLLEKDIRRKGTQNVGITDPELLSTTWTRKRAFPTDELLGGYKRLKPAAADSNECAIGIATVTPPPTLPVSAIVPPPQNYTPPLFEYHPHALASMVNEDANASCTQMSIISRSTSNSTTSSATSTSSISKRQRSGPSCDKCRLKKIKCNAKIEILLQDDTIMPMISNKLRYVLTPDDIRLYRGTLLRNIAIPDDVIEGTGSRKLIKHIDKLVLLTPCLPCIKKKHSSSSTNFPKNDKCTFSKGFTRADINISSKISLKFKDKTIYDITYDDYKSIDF
Outline: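 For each ungapped eight-base word taken together with its reverse complement, the Universal PBM Analysis Suite assigned an E-score. Binding data came from GST-tagged yeast transcription factors, applied at about 100-200 nM, on universal all-10-mer Agilent arrays made double-stranded by primer extension. Fluorescent anti-GST marked bound protein, and scans were normalised with masliner.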

Going from CCAGGGAG to ATTGACTA, the “PBM E-score” value rises from -0.251 to 0.042.

Compared with GGCCGTCA, GAAATCTC is higher in “PBM E-score” value: 0.00137 for the first, 0.092 for the second.

Compared with CATCCTTA, AGAAGGGG is lower in “PBM E-score” value: -0.0588 for the first, -0.385 for the second.

First: CCGCCTCA
Second: CCTGCGCG
The “PBM E-score” value of the first is lower: -0.18 for the first, 0.0101 for the second.

Compared with CGAAGATA, ACGTTAAC is lower in “PBM E-score” value: 0.132 for the first, -0.072 for the second.

Compared with ACATTCAC, CCACCATA is lower in “PBM E-score” value: 0.0415 for the first, -0.0903 for the second.

Going from ACGCTCTG to ATTTGATG, the “PBM E-score” value rises from -0.2 to 0.177.

First: GTCTCCCA
Second: AAACACTC
The “PBM E-score” value of the first is lower: -0.259 for the first, 0.2 for the second.

First: AGGATCTC
Second: AGCACACA
The “PBM E-score” value of the first is higher: -0.146 for the first, -0.167 for the second.

Compared with CAACCGAC, CTGCACAA is lower in “PBM E-score” value: 0.0614 for the first, -0.0274 for the second.

Going from CTTCGTGA to ATGGGTGC, the “PBM E-score” value falls from -0.113 to -0.117.

Compared with AGGAGTCC, TCGGCACA is lower in “PBM E-score” value: 0.202 for the first, -0.0667 for the second.

First: GACGGCCC
Second: ACCCGGCT
The “PBM E-score” value of the first is lower: -0.379 for the first, -0.16 for the second.

Compared with ATCATCCG, CCGAGTTA is higher in “PBM E-score” value: -0.0903 for the first, 0.0414 for the second.

Going from GACTGTTA to TCTGCACA, the “PBM E-score” value falls from -0.0152 to -0.275.

Compared with AAGCAGGC, CTGTTCCA is higher in “PBM E-score” value: -0.308 for the first, -0.094 for the second.

Going from AAAACGAT to CAAGGAGA, the “PBM E-score” value falls from 0.154 to 0.0606.

Compared with ATTATACA, AGCGACAT is lower in “PBM E-score” value: 0.251 for the first, -0.0586 for the second.

First: CCGAACCG
Second: CAACAGCG
The “PBM E-score” value of the first is higher: 0.184 for the first, -0.19 for the second.

First: CGGAGGAG
Second: ACGCTCGG
The “PBM E-score” value of the first is lower: -0.0266 for the first, 0.111 for the second.

Going from AACGCCCT to CTTAAGTC, the “PBM E-score” value rises from -0.159 to -0.00478.

First: GAGGGACC
Second: CAAATCGC
The “PBM E-score” value of the first is lower: -0.142 for the first, -0.0402 for the second.

First: GGGGCCAC
Second: GCCGGCAC
The “PBM E-score” value of the first is lower: -0.304 for the first, 0.0646 for the second.

Compared with GGATGCAC, ATTCGAAA is higher in “PBM E-score” value: -0.257 for the first, 0.248 for the second.

Going from AGTTGGTC to ACATATAA, the “PBM E-score” value rises from 0.0453 to 0.257.

Compared with AACTACGT, GTTAGCCA is higher in “PBM E-score” value: -0.0634 for the first, 0.0339 for the second.

First: ATGACAGA
Second: ATTACAGG
The “PBM E-score” value of the first is lower: 0.0896 for the first, 0.173 for the second.

Going from ACGTAACA to ATCTAAGA, the “PBM E-score” value rises from 0.0183 to 0.0658.

First: ACGGCCGT
Second: AAGGGAAC
The “PBM E-score” value of the first is lower: -0.257 for the first, -0.133 for the second.

First: GGACCGAA
Second: CGCAATAA
The “PBM E-score” value of the first is lower: 0.151 for the first, 0.218 for the second.

Going from CATAACGA to TAGTGCAA, the “PBM E-score” value rises from -0.00264 to 0.0855.

Compared with CTTGCGGA, ATGTGTGC is lower in “PBM E-score” value: 0.194 for the first, -0.195 for the second.

First: AGCGCTTG
Second: GTGGTAAC
The “PBM E-score” value of the first is higher: 0.0389 for the first, 0.0333 for the second.

First: ATATGGAA
Second: CGTCAAAA
The “PBM E-score” value of the first is lower: 0.0219 for the first, 0.254 for the second.

Compared with CATAGTCG, CTGGTAGC is lower in “PBM E-score” value: -0.0151 for the first, -0.0326 for the second.

Going from ACCGGACG to ACCCTCCG, the “PBM E-score” value falls from 0.114 to -0.153.

Going from AAGAATGC to CGTATTGA, the “PBM E-score” value rises from 0.0552 to 0.0752.

Compared with GGGCACTA, ACTATAAA is higher in “PBM E-score” value: -0.167 for the first, 0.321 for the second.

Going from ATATCTTG to AATCGACG, the “PBM E-score” value falls from 0.0892 to -0.0272.

Going from CAAGGACA to AACAACAG, the “PBM E-score” value falls from 0.0967 to 0.0641.

Going from AGTTCAGC to ATGAAGTA, the “PBM E-score” value rises from -0.166 to 0.0924.

Compared with TAAAAATA, AATCTCGT is lower in “PBM E-score” value: 0.249 for the first, 0.00271 for the second.

Compared with CCTCACAA, GAATATAC is higher in “PBM E-score” value: 0.0593 for the first, 0.203 for the second.

Going from GTCGTCAA to CGATTGGA, the “PBM E-score” value rises from -0.053 to -0.00069.

First: AGAGTGTC
Second: CTCAAAGA
The “PBM E-score” value of the first is higher: 0.154 for the first, -0.0703 for the second.

First: GTATAGTA
Second: CAGGTCCC
The “PBM E-score” value of the first is higher: 0.252 for the first, -0.182 for the second.

Compared with AGCACATG, ATATGCAT is higher in “PBM E-score” value: -0.00767 for the first, 0.0389 for the second.

Compared with ACAGAAAG, GAGACAAA is lower in “PBM E-score” value: 0.0888 for the first, 0.0118 for the second.

Compared with CTTAATAA, AACAGTGC is lower in “PBM E-score” value: 0.217 for the first, -0.0707 for the second.

Going from CACGAGTG to GAAATAAC, the “PBM E-score” value rises from -0.112 to 0.128.

First: ACCTTTAC
Second: GGCGGTGA
The “PBM E-score” value of the first is higher: -0.101 for the first, -0.198 for the second.

First: GCAGTCGA
Second: ACGGCTAA
The “PBM E-score” value of the first is lower: -0.00287 for the first, 0.129 for the second.

First: TATCAACA
Second: CGCGCCCA
The “PBM E-score” value of the first is higher: 0.0946 for the first, -0.0784 for the second.

Going from TAACTTAA to ACGTGGCA, the “PBM E-score” value falls from 0.246 to -0.242.

Compared with ACCCACGG, AGGTTGTA is higher in “PBM E-score” value: -0.236 for the first, 0.103 for the second.

Compared with CCGCCTCG, TTCATAAA is higher in “PBM E-score” value: -0.105 for the first, 0.0803 for the second.

Going from GGCGACGA to CGGGCTTC, the “PBM E-score” value rises from -0.256 to 0.226.

Compared with ACAGGAAC, AAATGCGA is higher in “PBM E-score” value: -0.0368 for the first, 0.144 for the second.

Compared with ATCTCGGA, GCATTGTA is lower in “PBM E-score” value: 0.368 for the first, 0.0282 for the second.

Going from GACTTATA to AGTGTCGA, the “PBM E-score” value falls from 0.326 to -0.0848.

First: CAATTGTC
Second: ACACTACG
The “PBM E-score” value of the first is lower: -0.00096 for the first, 0.0648 for the second.

Compared with AGGAGTCA, CGACGACA is lower in “PBM E-score” value: 0.0481 for the first, -0.181 for the second.

Going from ACCACGGC to CGTTCGAG, the “PBM E-score” value falls from -0.166 to -0.246.

First: AATGTCGA
Second: GGAAGAAC
The “PBM E-score” value of the first is higher: 0.126 for the first, 0.047 for the second.

Going from ACACCCCA to CAACAGTG, the “PBM E-score” value rises from -0.128 to 0.102.

Going from CTACTACA to GAATTATA, the “PBM E-score” value rises from 0.161 to 0.335.

First: ACTATGAG
Second: CGATTGAG
The “PBM E-score” value of the first is higher: 0.129 for the first, -0.0533 for the second.

Going from ACGACTAC to GCTGTGAC, the “PBM E-score” value falls from -0.171 to -0.326.

Compared with ATCCTCCA, TCTGTTCA is higher in “PBM E-score” value: -0.0869 for the first, -0.00016 for the second.

Going from CTATAGGA to GGAAAGAC, the “PBM E-score” value rises from -0.082 to -0.0333.

First: TCTATTAA
Second: AGTCCAAG
The “PBM E-score” value of the first is higher: 0.218 for the first, -0.0863 for the second.

Going from GAAATTTA to ATAAAAGG, the “PBM E-score” value falls from 0.213 to 0.0432.

Compared with GCGACCTA, AGGACAAC is higher in “PBM E-score” value: -0.0189 for the first, -0.00371 for the second.

Compared with GCTGGTGA, CCTAAGCG is higher in “PBM E-score” value: -0.045 for the first, 0.00784 for the second.

Going from GCAATACC to GGCAAAAC, the “PBM E-score” value falls from -0.0445 to -0.0896.

Compared with CACGAAAC, CCGTGCCA is lower in “PBM E-score” value: 0.0862 for the first, -0.116 for the second.

Compared with CCGACGCG, TAGCAGCA is higher in “PBM E-score” value: -0.0778 for the first, 0.0287 for the second.

Going from TAATGGGA to ATATAAGC, the “PBM E-score” value rises from -0.122 to 0.0532.

Compared with ACATGCTC, CACAGAAG is lower in “PBM E-score” value: 0.00139 for the first, -0.0414 for the second.

Going from ACGATATA to CCTCCAAC, the “PBM E-score” value falls from 0.0215 to -0.0551.

Going from TCATCCGA to CTGCGGTC, the “PBM E-score” value falls from 0.132 to -0.183.

Going from TATGACGA to ATCAAGCA, the “PBM E-score” value rises from 0.0527 to 0.0714.

First: AGTCTATG
Second: ATCCATAG
The “PBM E-score” value of the first is lower: -0.11 for the first, -0.108 for the second.

Compared with CCTTAAAA, CCAGTATA is lower in “PBM E-score” value: 0.0539 for the first, -0.0121 for the second.

Compared with ATGAAGAA, GCTCATAC is lower in “PBM E-score” value: 0.108 for the first, -0.0734 for the second.

Compared with GAAAGCCC, ATACTGGC is lower in “PBM E-score” value: 0.108 for the first, -0.252 for the second.
